This is one part of the list. Shown are side measurements of this screen, not its main read-out; they come without a call. Compounds called inactive in the main read-out are mostly missing here. Potencies come from curve fits of mixed quality, noted in brackets.

This test in a line: qHTS Assay for Lipid Storage Modulators (AID 1519). Conditions: Drosophila S3 cells, BODIPY lipid droplet/cell ratio, laser cytometry, cells loaded with oleic acid. In outline:
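Cells seeded at 5,000 per well were treated with compounds over a concentration series and loaded with oleic acid (400 uM, as added). Lipid droplet fluorescence (488 nm excitation, 500-530 nm channel) was read by laser-scanning cytometry and normalized to 20 uM Triacsin C.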
In general terms: In qHTS, concentration-response curves come from the screen itself.

The mark [1] stands for this setting: measured here: cell count channel max response.
[2] abbreviates: measured here: lipid (BODIPY) channel AC50.
[3] abbreviates: measured here: lipid channel max response.
[4] abbreviates: measured here: cell number channel AC50.
Tags give direction and shape of the fitted curve.

Turning to `O=C(c1ccco1)N1CCC2(CCCN(c3ncccn3)C2)CC1`, the max response under setting [1] is 24.3% and the max response under setting [3] was determined as 33.5%. The AC50 (usually the midpoint of the concentration-response curve, whichever way the signal moves) under setting [2] was 56.2 nM [rising, full curve].

In the case of `COc1ccc(-c2nc3cnc(N4CCN(C)CC4)nc3n(CCc3ccccc3)c2=O)cc1`, the max response reads like this: under setting [1], 10.1%; under setting [3], 8.27%. In addition, the half-maximal activity concentration (AC50) under setting [2] was 4470 nM [rising, single point].

With `CC(C)NC(=O)N1CC[C@@]2(CCCN(C(=O)c3cccc(F)c3)C2)C1`, the max response is, setting by setting: under setting [1], 2.02%; under setting [3], 9.05%. In addition, under setting [2], the AC50 was 2000 nM [rising, partial curve].

As to `O=c1cc(-c2cc(O)c(O)c(O)c2)oc2cc(O)cc(O)c12`, the max response was -28.6% under setting [1] and -38.6% under setting [3]. For the same compound, the AC50 under setting [2] is 39800 nM [falling, single point].

As for `COCC(=O)N1CCC2(CCCN(C(=O)Nc3ccccc3)C2)CC1`, the max response was 21.7% under setting [1] and 32.4% under setting [3]. Also, the concentration at half-maximal activity (AC50) under setting [2] is 355 nM [rising, full curve, poor fit].

Consider `CSc1ccc2c(c1)[C@H](N1CCN(C)CC1)Cc1ccccc1S2`, for which the max response under setting [1] was 44.7% and the max response under setting [3] was determined as 75.1%. In addition, the concentration at half-maximal activity (AC50) under setting [2] is 12600 nM [rising, partial curve, poor fit].

Consider `O=c1c(-c2cccc(Cl)c2)nc2cncnc2n1C1CC1`, for which the max response worked out at 11.1% under setting [1] and 17% under setting [3]. For the same compound, the AC50 under setting [2] is 1260 nM [rising, full curve, poor fit].

Take `C=C1c2c(Cl)ccc(O)c2C(O)=C2C(=O)[C@]3(O)C(O)=C(C(N)=O)C(=O)C(N(C)C)C3C(O)C12` (stereo partly specified): the max response reads like this: under setting [1], 17.9%; under setting [3], 31.6%. The AC50 under setting [2] is 39800 nM [rising, single point].

On to `CN(C)c1ccc(-c2ccc3ncnc(N(C)Cc4ccco4)c3c2)cc1`, for which the max response reads like this: under setting [1], 11.1%; under setting [3], 20.6%. Also, the AC50 under setting [2] was 708 nM [rising, full curve].

With `COc1ccc(Nc2ncc3nc(-c4cccs4)c(=O)n(Cc4cccc(OC)c4)c3n2)cc1`, the max response under setting [1] turned out to be 61.8% and the max response under setting [3] is -9.61%. Further, the AC50 under setting [4] was 15800 nM [rising, partial curve].

Take `COc1ncc2nc(-c3cccs3)c(=O)n(Cc3cccs3)c2n1`: the max response runs as follows: under setting [1], 24.2%; under setting [3], 28.4%. Also, under setting [2], the AC50 is 2820 nM [rising, full curve, poor fit].

Consider `Cn1c(=O)c(-c2ccccc2)nc2cnc(Nc3ccccc3)nc21`, for which the max response came out at 12.7% under setting [1] and 3.14% under setting [3]. For the same compound, the AC50 under setting [2] was 631 nM [rising, full curve, poor fit].

In the case of `COc1ccc(Oc2ncc3nc(-c4ccc(F)cc4)c(=O)n(C[C@H]4CCCO4)c3n2)cc1`, the max response by setting is: under setting [1], -14.8%; under setting [3], -64.3%. Under setting [2], the AC50 was 39800 nM [falling, single point].

Consider `Cn1c(=O)c(-c2cccc(F)c2)nc2cncnc21`, for which the max response under setting [1] is 28.3% and the max response under setting [3] was determined as 39.6%. For the same compound, under setting [2], the AC50 was 2000 nM [rising, full curve].

On to `COc1ccc(-n2c(=O)c(C)nc3cnc(N(C)C)nc32)cc1`, for which the max response under setting [1] was 11.3% and the max response under setting [3] stood at 14.7%. The AC50 under setting [2] is 70.8 nM [rising, full curve, poor fit].

For the compound `CCCCC1C(=O)N(c2ccccc2)N(c2ccc(O)cc2)C1=O` (stereo unspecified), the max response runs as follows: under setting [1], 1.91%; under setting [3], -88.2%. Under setting [2], the AC50 was 22400 nM [falling, partial curve].

Regarding `O=c1nc2ccccc2c2n1C[C@H](CN1CCN(c3ccccc3)CC1)N2`, the max response by setting is: under setting [1], 65.5%; under setting [3], 87.2%. Further, under setting [4], the AC50 is 5620 nM [rising, partial curve, poor fit].

Regarding `N#Cc1ccc(CN2CC3(CCN(C(=O)c4ccncc4)CC3)C2)cc1`, the max response by setting is: under setting [1], 10.8%; under setting [3], 8.48%. In addition, the AC50 under setting [2] was 1780 nM [rising, partial curve, poor fit].

Consider `N[C@@H](C(=O)O)c1ccc(C(=O)O)c(O)c1`, for which the max response runs as follows: under setting [1], -4.73%; under setting [3], -1.16%. The AC50 under setting [2] was 7.08 nM [falling, full curve, poor fit].

On to `COc1ccc2[nH]cc(CCNc3ccnc(-c4cccc(C#N)c4)n3)c2c1`, for which the max response was found to be 31.2% under setting [1] and 38% under setting [3]. Moreover, the AC50 under setting [2] is 10 nM [rising, full curve, poor fit].

As to `CN(C)CCOC(C)(c1ccccc1)c1ccccn1` (stereo unspecified), the max response under setting [1] was 22.2% and the max response under setting [3] came to 45.4%. Moreover, the AC50 under setting [2] is 39800 nM [rising, single point].

In the case of `COc1ccc(-c2nc3cnc(Oc4ccccc4)nc3n(C3CC3)c2=O)cc1`, the max response under setting [1] was found to be 18% and the max response under setting [3] was 26.3%. Also, the AC50 under setting [2] is 31.6 nM [rising, full curve, poor fit].

For the compound `COc1ccc(C2COc3c(ccc(O)c3OC)C2)c(OC)c1O` (stereo unspecified), the max response stood at 26.2% under setting [1] and 41.8% under setting [3]. Besides, the AC50 under setting [2] is 39800 nM [rising, single point].

Turning to `COc1ccccc1-c1cc(NCc2cnc(C)cn2)ncn1`, the max response reads like this: under setting [1], 21.3%; under setting [3], 24.5%. In addition, the AC50 under setting [2] was 708 nM [rising, full curve].

As for `Nc1ncnc2c1ncn2C1CCCC1`, the max response reads like this: under setting [1], 55.7%; under setting [3], 53.6%. Under setting [4], the AC50 is 2.51 nM [rising, full curve, poor fit].

For the compound `CN(C)CC[C@@H](c1ccc(Cl)cc1)c1ccccn1`, the max response reads like this: under setting [1], 28.5%; under setting [3], 41%. Besides, the AC50 under setting [2] is 39800 nM [rising, single point].

Take `Cc1cnc(CNc2ncnc3ccc(-c4ccccc4C)cc23)cn1`: the max response was 12.2% under setting [1] and 15.7% under setting [3]. Moreover, the AC50 under setting [2] is 7.94 nM [rising, full curve, poor fit].

The values are drawn from PubChem BioAssay (NCATS).
